Measured values reported in PubChem BioAssay AID624417 (National Center for Advancing Translational Sciences (NCATS), 2012).
Among all 410,000 compounds or so, about 6,400 (1.6%) were called active. Inconclusive results, whose numbers are uncertain, are shown with a selection of clear calls. Calls follow the shape of the dose curve; as a rule, active = well fitted inhibition curve with a large enough effect; inconclusive = small, poorly fitted or top-dose-only effect; inactive = no such curve, though single readings can be large or run the other way. Potencies beside an inconclusive call are fits to weak or partial responses and may not hold up.

Each compound was assayed against Glucagon-like peptide 1 receptor (Homo sapiens) (UniProt P43220) (assay: qHTS of GLP-1 Receptor Inverse Agonists (Inhibition Mode)). Settings: HEK293 GLP-1R CRE-luciferase, luminescence, 24 h, GLP-1R form is constitutively active; activity change, negative = inhibition: at 38.3 µM (top of the series) unless noted.
UniProt P43220, sequence (P43220 whole entry, looked up): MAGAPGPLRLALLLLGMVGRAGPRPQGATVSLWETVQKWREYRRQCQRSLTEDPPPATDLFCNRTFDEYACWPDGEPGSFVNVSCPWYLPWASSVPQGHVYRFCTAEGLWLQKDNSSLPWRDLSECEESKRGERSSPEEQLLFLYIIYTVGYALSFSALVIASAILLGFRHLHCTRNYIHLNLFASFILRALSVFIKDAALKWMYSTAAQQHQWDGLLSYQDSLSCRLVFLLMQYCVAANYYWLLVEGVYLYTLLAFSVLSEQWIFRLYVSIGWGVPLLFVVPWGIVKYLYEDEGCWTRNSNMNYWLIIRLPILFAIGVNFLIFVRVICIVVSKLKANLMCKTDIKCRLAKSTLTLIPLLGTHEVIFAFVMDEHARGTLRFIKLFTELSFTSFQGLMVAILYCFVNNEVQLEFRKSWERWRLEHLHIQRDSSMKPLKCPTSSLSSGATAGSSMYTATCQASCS
How it was run: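 Seeding at 200 cells/uL, 12 h culture, 24 hr compound treatment, then luciferase reagent and a luminescence read; cells are HEK293 stably expressing a constitutively active GLP-1R plus cAMP-responsive luciferase.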
% is scaled to controls: 0 for no effect and ±100 for the full control effect; potency is read from the fitted curve at half-maximal effect; tags tell the direction and shape of the fitted curve.
Also: nearly all actives have a fitted effect of over 55% in size.

Potency, inconclusive:
CC(NC(=O)NNC(N)=S)(C(F)(F)F)C(F)(F)F 20 µM [inhibitor, single point]
Cc1cc(C)cc(Cn2c3ccc(NC(=S)NCc4ccccc4F)cc3c(=O)n2C)c1 25.1 µM [inhibitor, single point]
O=S(=O)(CC(CN1CCCCC1)N1CCCCC1)c1ccccc1 (stereo not given) 28.2 µM [inhibitor, single point]
O=C(c1cc2ccccc2o1)N(C1CC1)C1(C(=O)Nc2ccccc2)CCCC1 14.1 µM [inhibitor, single point]
COc1ccc(NC(=O)N2CCCC(c3nc(-c4ccc(OC)cc4)no3)C2)cc1 (stereo not given) 7.94 µM [inhibitor, partial curve, poor fit]
CC(C)(C)CN1CCN(CCCc2ccccc2)C(CCO)C1 (stereo not given) 11.2 µM [inhibitor, partial curve, poor fit]
CC(CNC(=O)Cn1c(-c2cccs2)cc2ccccc21)c1ccccc1 (stereo not given) 10 µM [inhibitor, partial curve, poor fit]
CC(C)OCC(O)CN1CCN(C(c2ccccc2)c2ccccc2)CC1 (stereo not given) 17.8 µM [inhibitor, partial curve, poor fit]
CCc1cc(C(=O)Nc2nc(-c3ccccn3)cs2)sc1C 12.6 µM [inhibitor, partial curve, poor fit]
O=C(C1CCN(S(=O)(=O)c2ccccc2F)CC1)N1CCN(Cc2ccc3c(c2)OCO3)CC1 22.4 µM [inhibitor, single point]
Cc1ccccc1Nc1cc(C(=O)NCCc2ccc(Cl)cc2)c2ccccc2n1 12.6 µM [inhibitor, partial curve, poor fit]
CC1CCN(c2cc(N)c(Cl)cc2[N+](=O)[O-])CC1 11.2 µM [inhibitor, single point]
CCN(CC)S(=O)(=O)c1ccc(Cl)c(C(=O)NC2CCN(Cc3ccccc3)CC2)c1 31.6 µM [inhibitor, single point]
Cc1ccc2c(CC(=O)N(Cc3ccc(Cl)cc3)Cc3ccco3)coc2c1 12.6 µM [inhibitor, single point]
Cc1cc(N2CCN(c3ccc(F)cc3)CC2)nc(-c2ccccc2)n1 10 µM [inhibitor, single point]
COc1cccc(NC(=O)CN(C)C(=O)/C=C/c2ccc3ccccc3n2)c1 11.2 µM [inhibitor, partial curve, poor fit]
CCOc1ccccc1/C=N/OCC(=O)NCc1ccc(F)cc1 12.6 µM [inhibitor, partial curve, poor fit]
CCCN(C)C[C@H]1Oc2cc(C#Cc3ccc(F)cc3)ccc2S(=O)(=O)N([C@H](C)CO)C[C@@H]1C 14.1 µM [inhibitor, single point]
Cc1c(Cl)cccc1NC(=O)Cn1c(=O)nc(-c2ccccc2)c2ccccc21 2 µM [inhibitor, partial curve, poor fit]
Nc1nc2ccccc2n1CCOc1ccc(Br)cc1 8.91 µM [inhibitor, partial curve, poor fit]
O=C(CN1CCCC1)N/N=C/c1ccc(-c2cccc(Cl)c2)o1 17.8 µM [inhibitor, partial curve, poor fit]
CCc1ccc(NC(=O)CCc2c(C)nn(-c3ccc(N4CCCCC4)nn3)c2C)cc1 22.4 µM [inhibitor, single point]
CN(C)c1ccc(C(=S)N2CCCC2)cc1Br 15.8 µM [inhibitor, single point]
O=C(Cc1cccc2ccccc12)N1CCCc2ccccc21 11.2 µM [inhibitor, partial curve, poor fit]
CCC(C)(C)NC(=O)C(c1ccccc1Cl)N(C(=O)CCC(=O)Nc1cc(C)on1)C(C)(C)C (stereo not given) 3.98 µM [inhibitor, partial curve, poor fit]
Cc1c(Cl)cccc1-n1c(SCC(=O)NCc2ccccc2Cl)nnc1-c1ccncc1 28.2 µM [inhibitor, single point]
COc1ccc(NS(=O)(=O)c2ccc(C(=O)NCC3(N4CCOCC4)CCCCC3)cc2)cc1 8.91 µM [inhibitor, partial curve, poor fit]
O=C(CSc1cccc[n+]1[O-])c1ccc(-c2ccccc2)cc1 17.8 µM [inhibitor, single point]
Clc1ccc(-c2csc(NNC3=NCCCCC3)n2)cc1 20 µM [inhibitor, single point]
Cc1ccc(S(=O)(=O)NC(CCc2ccccc2)CC(=O)C(C)(C)C)cc1 (stereo not given) 10 µM [inhibitor, partial curve, poor fit]
O=C(CNC(=O)C(c1ccccc1)c1ccccc1)N/N=C/c1ccc(O)cc1O 5.62 µM [inhibitor, partial curve, poor fit]
CC1SCC(=NOCc2c(Cl)cccc2Cl)CS1 (stereo not given) 3.55 µM [inhibitor, full curve]

Activity change, negative = inhibition, inactive:
O=C1c2ccccc2C(=O)N1Cc1cnc(N2CCN(c3ccccc3)CC2)s1 -4.76%
Cc1oc(-c2ccc(Cl)cc2)nc1CSCC(=O)NCc1ccccc1Cl -0.987%
CCn1c(SCC(=O)NC2CC2)nnc1-c1csc(C)c1 4.81%
COC(=O)Cc1c(C)c2ccc3c(c2oc1=O)CN(Cc1ccccc1OC)CO3 9.65%
Cc1ccc(S(=O)(=O)N2CCOCC2)cc1C(=O)NCCCn1ccnc1 6.79%
O=C(Nc1ccc(Cl)cc1)c1cc2nc(-c3ccco3)cc(C(F)(F)F)n2n1 6.26%
CCn1cnc2cc(NCc3cccs3)ccc21 13.5%
CCc1ccc(-n2c(=O)c3sc4ccccc4c3n(Cc3cccc(F)c3)c2=O)cc1 16.2%
